Data taken from the supplement of paper PMC3334620.
Whole data set: some 33,000 sequences, median “E-score (-0.5 to 0.5)” near -0.054, cut for the highest 2% near 0.39. This is one part of the list.

Molecular target: Ylr278c (UniProt Q05854)
Assay: PBM E-score (8-mer binding enrichment) (E-score (-0.5 to 0.5)); higher = stronger / more preferred TF binding; most listed sequences are background and not binding sites
Settings: protein concentration: 200 nM; construct: GST-DNA-binding domain
Outline: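 Detection of bound protein used fluorescent anti-GST, with scans normalised by masliner. The proteins were GST-tagged yeast transcription factors applied at about 100-200 nM to universal all-10-mer Agilent arrays made double-stranded by primer extension. Each ungapped eight-base word, pooled with its reverse complement, was scored with an E-score from the Universal PBM Analysis Suite.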

Row | Sequence | PBM E-score
1 | GGGGCAAC | -0.169
2 | CCCTCATA | -0.16
3 | CTAAACGC | 0.0688
4 | GCATGGGC | -0.219
5 | ATTTCTGA | -0.257
6 | TACCACCA | 0.0608
7 | AAGCCCCC | -0.0952
8 | AGACTAAC | -0.0964
9 | ACCGTAAC | -0.0794
10 | AACCAGAT | -0.0169
11 | CGGACCAA | 0.331
12 | GGGAGTTA | 0.195
13 | CGGGTCTC | 0.198
14 | TGCTCGAA | -0.161
15 | CCCTAAAC | -0.0595
16 | CGCGAGCA | 0.00146
17 | ATAGAATG | -0.167
18 | GTTTCTGA | 0.0572
19 | AGTCTACA | -0.154
20 | CAACTGTG | -0.155
21 | AGGGGGCG | -0.0422
22 | ATACTCAA | 0.0145

Row | Sequence | PBM E-score
23 | CTCCAACA | -0.109
24 | CATACGAC | -0.137
25 | CATTAGGC | -0.211
26 | AGTTCAAC | 0.0985
27 | CATGCCGA | 0.217
28 | CTCTATAC | -0.129
29 | AGCGCTAA | 0.143
30 | AAGTTAAG | -0.0926
31 | ATTAGTGG | 0.0575
32 | ACCGTTTA | 0.0458
33 | CAATCCCC | 0.16
34 | AGACCTAA | -0.175
35 | TCTAGAAA | -0.184
36 | TAATACGA | -0.145
37 | GGACTCCC | 0.0565
38 | AAATACAG | -0.0403
39 | GATATGAC | 0.00138
40 | AATGTGGT | -0.0805
41 | CGGACTCA | 0.384
42 | TAACAAGA | -0.0521
43 | AATAACCC | 0.199
44 | ATGCAGTG | -0.131

Row | Sequence | PBM E-score
45 | AATTCGCT | 0.129
46 | AGCGTGAG | -0.203
47 | ACCTTCCA | -0.165
48 | AGGGCTTA | -0.229
49 | ACGACCTA | -0.0853
50 | AACGCGAT | 0.091
51 | ATTAGAAT | -0.0713
52 | CGCCAGAG | -0.122
53 | CTGCAAAA | -0.0962
54 | ACGCATTG | -0.221
55 | ATTACAGC | -0.167
56 | AAAAGATG | -0.178
57 | CAGAACCA | -0.314
58 | CCGAGATC | 0.3
59 | GATCGTAA | -0.273
60 | CCCAACTC | 0.0932
61 | CAAGGTTC | -0.00539
62 | AAAACCTT | -0.012
63 | GACAAGAA | -0.00345
64 | GACGTCGC | -0.27
65 | CATGGGCC | -0.0231
66 | ATATCGGC | 0.319

Row | Sequence | PBM E-score
67 | CTATCCTC | -0.0361
68 | TACCAGTA | -0.128
69 | GGAAGTAC | 0.253
70 | GTGCTGAA | -0.106
71 | GTCCCGAC | 0.234
72 | ACCGACGA | 0.142
73 | CATTAGGA | -0.171
74 | GGGTGGAA | -0.0907
75 | GGTCGTAC | -0.0166
76 | TATTAAAA | 0.0268
77 | GAAGACTC | -0.134
78 | ACCGCGGT | 0.178
79 | CCCTTCCG | 0.277
80 | ATATATCC | 0.257
81 | AGGTAGAT | -0.111
82 | AACAGTAA | -0.0899
83 | AATCTGCG | 0.327
84 | ACTAGAGT | -0.201
85 | CCCTTTAC | -0.0176
86 | AAAAAGTA | -0.0712
87 | ACAGCTCT | -0.304
88 | ACTGTTAA | -0.209

Row | Sequence | PBM E-score
89 | CTCTAGAG | -0.226
90 | ACGCCCGC | 0.209
91 | AACTTTCG | -0.00201
92 | GATGACAC | -0.0218
93 | CAACGATG | -0.243
94 | AATGGATA | -0.0137
95 | AGGAAAAG | -0.0019
96 | CCCTCTGA | -0.097
97 | GTCTGTCA | -0.0519
98 | CATCGTCA | -0.119
99 | GTGGGCCA | -0.116
100 | GTTCAGCA | -0.175
101 | ATCGAGGC | -0.142
102 | ACCTGGTG | -0.018
103 | AAAGGAGT | 0.0155
104 | AATCGCGG | 0.237
105 | GGTCCAAC | 0.00905
106 | GACTGAAC | 0.00033
107 | CGTCAGGA | -0.211
108 | GATGTACA | -0.00924
109 | CACCTGCC | -0.0825
110 | AGATGTAT | -0.138
